The campaign covered roughly 390,000 compounds. About 4,700 (1.2%) were called active. Inconclusive means that the source gave no clear call. Such entries were picked first, then a sample of the others. Calls follow the shape of the dose curve; as a rule, active = well fitted inhibition curve with a large enough effect; inconclusive = small, poorly fitted or top-dose-only effect, or another doubt; inactive = no such curve, though single readings can be large or run the other way. Potencies of inconclusive entries are doubtful fits and often do not repeat.
molecular target: DNA polymerase eta (Homo sapiens) (UniProt Q9Y253); experiment: qHTS for Inhibitors of Polymerase Eta; conditions: recombinant Pol eta, fluorescent DNA replication assay; series mostly up to 114 µM
UniProt Q9Y253, sequence (Q9Y253 whole entry, looked up): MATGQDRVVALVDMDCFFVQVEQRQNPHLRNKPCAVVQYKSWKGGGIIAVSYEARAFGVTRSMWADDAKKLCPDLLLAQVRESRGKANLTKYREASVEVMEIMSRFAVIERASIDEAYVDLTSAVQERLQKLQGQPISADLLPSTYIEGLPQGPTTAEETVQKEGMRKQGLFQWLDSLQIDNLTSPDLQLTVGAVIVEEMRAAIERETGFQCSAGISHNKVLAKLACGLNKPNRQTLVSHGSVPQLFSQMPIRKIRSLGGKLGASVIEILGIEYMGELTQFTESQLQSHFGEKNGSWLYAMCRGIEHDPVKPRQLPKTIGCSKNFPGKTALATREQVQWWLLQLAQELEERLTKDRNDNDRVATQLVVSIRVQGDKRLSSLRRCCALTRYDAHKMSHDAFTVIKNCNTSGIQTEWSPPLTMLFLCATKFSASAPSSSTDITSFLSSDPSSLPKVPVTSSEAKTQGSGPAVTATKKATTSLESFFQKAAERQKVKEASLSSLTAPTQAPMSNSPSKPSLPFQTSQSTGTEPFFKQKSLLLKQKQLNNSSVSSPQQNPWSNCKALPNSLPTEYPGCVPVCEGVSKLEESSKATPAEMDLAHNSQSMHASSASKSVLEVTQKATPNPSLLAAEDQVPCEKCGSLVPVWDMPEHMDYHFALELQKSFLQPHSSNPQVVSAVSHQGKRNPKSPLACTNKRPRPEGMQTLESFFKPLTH
How it was run: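 Pol eta at 10 nM preincubated with compounds 15 min at room temperature; reaction started with fluorescent substrate (50 nM final) and read kinetically at 0 and 10 min.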
Potency is read from the fitted curve at half-maximal effect; tags tell the direction and shape of the fitted curve.

SMILES	Potency
CCOC(=O)C1=C(O)/C(=C\c2ccc(CNS(=O)(=O)c3ccc(Br)cc3)o2)N=C1C	active: 22.4 µM
CC1=C(C(=O)Nc2ccccc2C)C(c2ccc[nH]2)n2ncnc2N1 (stereo not given)	active: 8.91 µM
CCN1C(=O)/C(=C2/C=Cc3ccccc3N2C)OC1=S	inconclusive: 35.5 µM [inhibitor, single point]
O=C(/C=C/c1ccc(O)c([N+](=O)[O-])c1)c1ccc2ccccc2c1	active: 22.4 µM
O=C(COc1cccc2ccccc12)N/N=C/c1ccccc1OCc1ccc(C(=O)O)cc1	active: 79.4 µM
Cc1ccnc(NC(=O)CCC(=O)N(CC(=O)NCCc2ccccc2)Cc2cccs2)c1	inactive
COc1ccccc1NC(=O)Cc1nc(CCl)cs1	inconclusive: 39.8 µM [inhibitor, partial curve, poor fit]
CSCCC1NC2(C(=O)Nc3c(Cl)cccc32)[C@@H]2C(=O)N(C3CCCC3)C(=O)[C@H]12 (stereo not given in full)	inconclusive: 14.1 µM [inhibitor, full curve, poor fit]
O=C(c1ccc2c3c(cccc13)CC2)C1CCCN(C(=O)c2ccc(=O)[nH]c2)C1 (stereo not given)	inconclusive: 35.5 µM [inhibitor, full curve]
COc1cc(/C=N/NC(=O)c2ccc(CSc3nc4ccccc4[nH]3)cc2)cc(OC)c1OC	inconclusive: 8.91 µM [inhibitor, full curve, poor fit]
COc1cccc(/C=N/NC(=O)c2[nH]nc3c2CCc2ccccc2-3)c1O	inconclusive: 20 µM [inhibitor, partial curve, poor fit]
Nc1nccnc1C(=O)OCC(=O)Nc1ccc2[nH]c(=O)[nH]c2c1	active: 22.4 µM
CCn1cc2nc(SCC(=O)Nc3cccc(Cl)c3C)n(Cc3ccc(Cl)cc3)c(=O)c2n1	inconclusive: 89.1 µM [inhibitor, single point]
CC1CCN(c2ccc3nnc(CCC(=O)Nc4ccc(F)c(F)c4)n3n2)CC1	inconclusive: 89.1 µM [inhibitor, partial curve, poor fit]
O=C(Nc1ccccc1)OCC1COC(c2ccccc2)(c2ccccc2)O1 (stereo not given)	inconclusive: 28.2 µM [inhibitor, partial curve, poor fit]
CCn1cnc2cc(NCc3ccc(N(C)C)cc3)ccc21	inconclusive: 89.1 µM [inhibitor, single point]
O=C1N/C(=N\N=C\c2ccccn2)SC1Cc1cccc(SC(F)F)c1 (stereo not given)	inconclusive: 35.5 µM [inhibitor, single point]
CCc1cc2c(-c3ccccc3)cc(=O)oc2c2c1OCN(Cc1ccc(C)cc1)C2	inactive
Cc1cc(=O)[nH]c(=O)n1Cc1ccccc1	inconclusive: 2.82 µM [inhibitor, full curve, poor fit]
COc1ccc(N(CC(=O)Nc2ccc(OC)c(Cl)c2)S(=O)(=O)c2c(C)noc2C)cc1	inconclusive: 31.6 µM [inhibitor, partial curve, poor fit]
Cc1ccc(NC(=O)CN2C(=O)c3ccccc3Sc3ncccc32)c(C)c1	inactive
CN1CCN(C(=S)Nc2ccc(Cl)cc2Cl)CC1	inconclusive: 35.5 µM [inhibitor, partial curve, poor fit]

SMILES	Potency
Cc1ccc(S(=O)(=O)N2C[C@H]3n4c(=O)ccc(=O)n4C[C@H](OC(=O)NCc4ccco4)[C@@]3(O)C2)cc1	inconclusive: 22.4 µM [inhibitor, partial curve, poor fit]
O=C(CN1C(=O)c2ccccc2C1=O)Nc1sc2c(c1C(=O)NCc1ccco1)CCCC2	inconclusive: 12.6 µM [inhibitor, partial curve, poor fit]
O=C(CSc1oc(-c2ccco2)nc1S(=O)(=O)c1ccccc1)NCC1CCCO1 (stereo not given)	inconclusive: 31.6 µM [inhibitor, single point]
O=C(Nc1cccc(-c2nc3ccccc3[nH]2)c1)c1cccc(NC(=O)c2ccco2)c1	active: 50.1 µM
CSc1cccc(NS(=O)(=O)c2ccc3[nH]cc(C(=O)N4CCCC4)c(=O)c3c2)c1	inconclusive: 100 µM [inhibitor, partial curve, poor fit]
CC1(c2cccc(Br)c2)NC(=O)N(CC(=O)NCCC2=CCCCC2)C1=O (stereo not given)	inconclusive: 3.55 µM [inhibitor, partial curve, poor fit]
CCOC(=O)C1CCCN(C(=O)CSc2ccc(Br)cc2)C1 (stereo not given)	inactive
Cc1ccc(S(=O)(=O)N(C)Cc2ccc(-c3nnco3)cc2)cc1	inconclusive: 28.2 µM [inhibitor, partial curve, poor fit]
O=S(=O)(Nc1ccc(O)c(Sc2nc3ccccc3s2)c1)c1cccc2ccccc12	inconclusive: 35.5 µM [inhibitor, partial curve, poor fit]
NC(CSC1(c2ccc(F)cc2)c2ccccc2-c2ccccc21)C(=O)O (stereo not given)	inconclusive: 31.6 µM [inhibitor, partial curve, poor fit]
COc1ccccc1CCNC(=O)c1ccc(NC(=O)N2CC(C)Sc3ccccc32)cc1 (stereo not given)	inactive
CC(C)(C)C(=O)Cn1c(=O)n(CCCCCC(=O)NCc2ccc3c(c2)OCO3)c(=O)c2sccc21	inactive
O=C(Nc1cccc(S(=O)(=O)N2CCCCC2)c1)C1COc2ccccc2O1 (stereo not given)	inactive
Cc1ccc(C(=O)NNC(=O)c2nn(-c3ccc(F)cc3)ccc2=O)cc1	inactive
COc1ccc(-c2cc(=O)c3c(O)cc(OC4OC(COC5OC(C)C(O)C(O)C5O)C(O)C(O)C4O)cc3o2)cc1O (stereo not given)	active: 22.4 µM
CCCN1C(=O)/C(=C/c2ccco2)SC1=Nc1ccc(OC)cc1	inactive
CN(CC(=O)Nc1ccc(Cl)cc1)C(=O)CCc1c[nH]c2ccccc12	inactive
Cc1ccc(S(=O)(=O)NN=C2C(=O)C3CCC2C3Cl)cc1 (stereo not given)	inconclusive: 28.2 µM [inhibitor, partial curve, poor fit]
COc1cc(/C=C2\C(=N)N3N=C(S(C)(=O)=O)SC3=NC2=O)ccc1OCCOc1ccc(C)cc1	inconclusive: 56.2 µM [inhibitor, partial curve, poor fit]
O=C1c2ccccc2-c2nc3ccccc3cc21	inactive
CN(C)CCNc1ncnc2c1sc1nc(N3CCCC3)c3c(c12)CC(C)(C)OC3	inconclusive: 44.7 µM [inhibitor, partial curve, poor fit]
Cc1cccc(NC(=O)C2C3C=CC(C4CC34)C2C(=O)O)c1 (stereo not given)	inconclusive: 39.8 µM [inhibitor, single point]

SMILES	Potency
Cc1cc(C(=O)Cn2ncc(Cl)c(Cl)c2=O)c(C)n1CC(F)(F)F	active: 22.4 µM
CC(=O)c1ccc(NC2=NS(=O)(=O)c3ccccc32)cc1	inactive
O=C(/C=C/c1ccco1)NCCc1ccc(F)cc1	inconclusive: 17.8 µM [inhibitor, full curve, poor fit]
Cc1ccc2oc(-c3cc(NC(=O)c4ncn[nH]4)ccc3O)nc2c1	active: 44.7 µM
CCOC(CNC(=O)C1CCN(S(=O)(=O)c2ccc3nc4c(c(C(=O)O)c3c2)CC(C)CC4)CC1)OCC (stereo not given)	active: 31.6 µM
COc1cc(Cl)c(C)cc1NC(=O)CCCN1C(=O)C(c2ccccc2)Oc2cccnc21 (stereo not given)	inactive
C/C(=N\NC(=O)C1(C)CC1(Br)Br)c1cccc(NC(=O)c2ccc(C)o2)c1 (stereo not given)	inconclusive: 79.4 µM [inhibitor, partial curve, poor fit]
CCCc1ccc(Oc2cc(NN3CCCCC3)c([N+](=O)[O-])cc2[N+](=O)[O-])cc1	inconclusive: 89.1 µM [inhibitor, partial curve, poor fit]
O=C(Nc1ccc(Cc2ccc(NC(=O)Nc3cccnc3)cc2)cc1)Nc1cccnc1	active: 44.7 µM
O=C(Nc1cc(S(=O)(=O)Nc2ccc(Cl)cc2)ccc1O)c1ccc(S(=O)(=O)N2CCCCCC2)cc1	inconclusive: 39.8 µM [inhibitor, full curve]
Cc1ccc(CN2CC(C(=O)Nc3nnc(SCc4c(Cl)cccc4Cl)s3)CC2=O)cc1 (stereo not given)	inconclusive: 17.8 µM [inhibitor, partial curve]
S=C(NCCN1CCOCC1)N/N=C/c1c2ccccc2cc2ccccc12	inconclusive: 17.8 µM [inhibitor, partial curve]
N#CCC(=O)Nc1ccc(C(=O)OCC(=O)NNC(=O)c2ccc(Cl)cc2)cc1	inconclusive: 50.1 µM [inhibitor, partial curve]
O=C(O)c1[nH]c2ccccc2c1C(c1cc(Br)ccc1O)c1c(C(=O)O)[nH]c2ccccc12	active: 50.1 µM
Cc1ccc(C)c(N2CCN(C(=O)c3cc4c(=O)n(Cc5cccnc5)ccc4nc3C)CC2)c1	inactive
CCCCCCC(=O)N(O)C1CC(=O)N(c2ccc(Cl)cc2)C1=O (stereo not given)	inactive
Cc1c(C(=O)NC2CCCCC2)oc2ccccc12	inactive
NC(=O)N(CCC(=O)O)c1ccccc1	inconclusive: 31.6 µM [inhibitor, partial curve]
COC(=O)[C@@]12OC[C@]34[C@H]([C@@H](O)[C@@H]1O)[C@@]1(C)C(=O)C(O[C@@H]5OC(CO)[C@@H](O)[C@@H](O)[C@@H]5O)=C[C@@H](C)[C@@H]1C[C@H]3OC(=O)[C@H](OC(=O)/C=C(\C)C(C)(C)OC(C)=O)[C@@H]24 (stereo not given in full)	inactive
COc1ccc(CNC(=O)c2cc(-c3cccs3)nc3ccccc23)c(OC)c1	inactive
COc1cc(NS(=O)(=O)c2ccc(N/C=C(\C#N)c3nc4ccccc4o3)cc2)nc(OC)n1	inconclusive: 39.8 µM [inhibitor, partial curve, poor fit]

From PubChem BioAssay AID588591 (National Center for Advancing Translational Sciences (NCATS), 2011)
